Experimental findings from patent US20100086555A1 are described below.

Assay [1] has as its target recombinant trimeric H5 HA (A/VN/1203/04) (influenza A virus A/VN/1203/04 (H5N1)). Description: competition ELISA on recombinant trimeric H5 HA; competitor FLD21. In general terms: In an ELISA, binding on a coated surface is turned into a signal by an enzyme label.
For assay [2] the target is unchanged. Description: competition ELISA on recombinant trimeric H5 HA; competitor C179.
The target of assay [3] is H5 HA A/VN/1194/04 (on pseudotypes) (influenza A virus A/VN/1194/04 (H5N1)). Description: cell-based or functional assay.
Assay [4] addresses H6 HA A/teal/HK/WN312/97 (on infectious virus) (influenza A virus A/teal/HK/W312/97 (H6N1)). Description: cell-based or functional assay.
Assay [5] concerns the target H5 HA A/HK/491/97 (on pseudotypes) (influenza A virus A/HK/491/97 (H5N1)). Description: cell-based or functional assay.
For assay [6], the target named is H5 HA A/WS/Mong/244/05 (on pseudotypes) (influenza A virus A/WS/Mong/244/05 (H5N1)). Description: cell-based or functional assay.
The target of assay [7] is H9 HA A/HK/1073/99 (on infectious virus) (influenza A virus A/HK/1073/99 (H9N2)). Description: cell-based or functional assay.
In assay [8] the target is H5 HA A/VN/1203/04 (on pseudotypes and on infectious virus) (influenza A virus A/VN/1203/04 (H5N1)). Description: cell-based or functional assay.
The target in assay [9] is H5 HA A/Anhui/1/5 (on pseudotypes) (influenza A virus A/Anhui/1/5 (H5N1)). Description: cell-based or functional assay.
The target in assay [10] is H2 HA A/JP/305/57 (on infectious virus) (influenza A virus A/JP/305/57 (H2N2)). Description: cell-based or functional assay.
The target of assay [11] is H1 HA A/SI/3/06 (on infectious virus) (influenza A virus A/SI/3/06 (H1N1)). Description: cell-based or functional assay.
The target of assay [12] is H5 HA A/INDO/5/05 (on pseudotypes and on infectious virus) (influenza A virus A/INDO/5/05 (H5N1)). Description: cell-based or functional assay.
Assay [13] deals with H5 HA A/HK/213/03 (on pseudotypes) (influenza A virus A/HK/213/03 (H5N1)). Description: cell-based or functional assay.
Assay [14] deals with H9 HA A/ck/HK/G9/97 (on infectious virus) (influenza A virus A/ck/HK/G9/97 (H9N2)). Description: cell-based or functional assay.
Assay [15] addresses H1 HA A/Texas/3/99 (ELISA antigen) (influenza A virus A/Texas/3/99 (H1)). Description: ELISA.
Assay [16] addresses recombinant trimeric H5 HA (A/VN/1203/04) (influenza A virus A/VN/1203/04 (H5N1)). Description: ELISA.
Assay [17] concerns the target H9 HA A/HK/1073/99 (ELISA antigen) (influenza A virus A/HK/1073/99 (H9)). Description: ELISA.
The target of assay [18] is H1 HA A/SI/3/06 (ELISA antigen) (influenza A virus A/SI/3/06 (H1)). Description: ELISA.
Assay [19] has as its target H5 HA A/INDO/5/05 (ELISA antigen) (influenza A virus A/INDO/5/05 (H5N1)). Description: ELISA.
For assay [20], the target named is H5 HA A/VN/1203/04 (on pseudotypes and on infectious virus) (influenza A virus A/VN/1203/04 (H5N1)). Description: cell-based or functional assay. The source holds these as a separate data set.

Read-outs that look alike come from different tables or passages of the source.

B1: FC41 (antibody, V domains shown)
VH: QVQLVQPGAEVKKPGSSVKVSCKASGGIFSPYAISWVRQAPGQGLEWMGGIIAIFGTTNYAQKFQGRVTITADKSTTTAYLELNSLRFEDTAVYYCARGGRYYVDYFDYWGQGTLVSVSS
VL: EIVLTQSPGTLSVSPGERATLS[… about 80 residues …]TFGQGTKVEIK
As to B1, the Competition (%) in assay [1] was below 20%; in [2] it was 100%. In assay [3], this molecule had a Neutralization H5pp IC90 of 0.001 µg/mL. Further, the Neutralization of HA-pseudotypes (IC90) turned out to be 0.045 µg/mL in assay [3]; 0.016 µg/mL in assay [5]; 0.057 µg/mL in assay [6]; 0.066 µg/mL in [8]; 0.082 µg/mL in [9]; 0.123 µg/mL in [12]. The Neutralization of HA-pseudotypes (IC90) in [13] came out at 0.044 µg/mL. Moreover, the Neutralization of infectious viruses (IC50) in assay [4] amounted to 63 µg/mL; in assay [7] it was 20 µg/mL; in assay [8], 40 µg/mL; in assay [10], 25 µg/mL; in assay [11], 31 µg/mL; in [12] it was 25 µg/mL. Further, the results for the Neutralization of infectious viruses (IC50) in assay [14] and in assay [20] were 9 µg/mL and above 12 µg/mL, respectively. For the same molecule, in assay [8], the Hemagglutination inhibition titer was below 5. In assay [8], the Neutralization H5N1 IC50 came out at 5 µg/mL. Besides, the Neutralization H1N1 IC90 in [11] was determined as 6.2 µg/mL. Further, the Neutralization H9N2 IC50 in assay [14] came out at 0.1 µg/mL. Also, the K50 in assay [15] stood at 0.027 µg/mL; in [16], 0.031 µg/mL; in [17], 0.034 µg/mL; in [18], 0.545 µg/mL; in [19], 0.264 µg/mL.

B2: FB54 (antibody, V domains shown)
VH: QVQLVQSGAEVKKPGSSLKVSCKASGVTFSMYTISWVRQAPGQGLEWMGGIIPLFGTANYEQKFQGRVTITADTSTNTAYMELSSLRSEDTAVYYCARAGTTLTRFNWFDPWGQGTLVTVSS
VL: [… about 100 residues …]YTFGQGTKLEIK
For B2, the Competition (%) in assay [1] was below 20%; in assay [2], 100%. In [3], this molecule returned a Neutralization H5pp IC90 of 0.001 µg/mL. In addition, the Neutralization of HA-pseudotypes (IC90) in [3] worked out at 0.036 µg/mL; in assay [5] it was 0.021 µg/mL; in [6], 0.066 µg/mL; in assay [8], 0.028 µg/mL; in assay [9], 0.059 µg/mL; in assay [12] it was 0.084 µg/mL. The molecule further yielded a Neutralization of HA-pseudotypes (IC90) in [13] of 0.033 µg/mL. Also, the Neutralization of infectious viruses (IC50) turned out to be 36 µg/mL in [7], 9 µg/mL in [11], 16 µg/mL in assay [12] and 9 µg/mL in assay [14]. In assay [11], this molecule yielded a Neutralization H1N1 IC90 of 12.5 µg/mL. Also, the K50 in [15] is 0.018 µg/mL; in [16], 0.023 µg/mL; in [17], 2.56 µg/mL; in [18] it was 0.186 µg/mL; in assay [19], 38.7 µg/mL.
